Measured values from patent US12708676B2, “Phosphate compounds for detecting neurological disorders” (Amydis, Inc., priority 2018, dated 2026).

Tests used:
[1] = molecular target: aggregated Aβ (Homo sapiens, UniProt P05067); experiment: Fluorescent detection of Aβ in vitro; type: binding
[2] = molecular target: Aβ plaques (Homo sapiens, UniProt P05067); experiment: Example 7: ex vivo staining of human Alzheimer's disease tissue, co-localization with 6E10; details: post-mortem hippocampal sections, familial Alzheimer's disease patient
Description: Ex Vivo Analysis with Human Alzheimer's Disease Tissue: Post-mortem retinal tissue and brains of humans with confirmed or probable Alzheimer's disease were obtained (University of Miami, FL). This study was conducted to determine 1) if there is a correlation between amyloidosis in the brain and retinas of Alzheimer's disease patients, and 2) if compounds as disclosed herein could identify patients with amyloid accumulation in the brain through fluorescence inspection of retinas as a method for diagnosing patients with Alzheimer's disease.
A co-localization experiment was conducted on brain tissue from a patient diagnosed with familial Alzheimer's disease. Free floating sections from the post-mortem hippocampal region of this patient were stained with an Aβ sequence specific antibody (6E10) along with Compound 7. […] One limitation of 6E10, is that it recognizes a specific sequence of amino acids rather than the aggregation of Aβ which explains the fluorescence of both dense core plaques and other diffuse objects observed in FIGS. 6B and C.

[3] = molecular target: amyloid deposits associated with CAA (Homo sapiens, UniProt P05067); experiment: Example 8: ex vivo staining of human CAA brain tissue; type: binding; details: median frontal cortex sections
Excerpt: Post-mortem brain tissue from patients diagnosed with CAA were examined to de-risk the translation from the limited robust preclinical animal models to humans. This study was designed to understand the fundamental basis of fluorescently detecting amyloids using human tissue. […] Human CAA brain tissue and healthy control brain tissue was acquired (University of California, San Diego, CA). […] All CAA patients were female and ranged in age from 70-93 years. Control brains were obtained from cognitively normal patients that ranged in age from 82-94 years from both male and female donors.

## N#C/C(=C\c1ccc2cc(N3CCCCC3)ccc2c1)C(=O)NCCOCCOCCO [Compound 7, (E)-2-cyano-N-(2-(2-(2-hydroxyethoxy)ethoxy)ethyl)-3-(6-(piperidin-1-yl)naphthalen-2-yl)acrylamide]
[1]
  Fluorescent detection of Aβ40 in vitro: fluorescently detect Aβ40 in vitro
[2]
  Binding to dense core plaques of Aβ: binds to objects consistent in size and morphology to dense core plaques of Aβ
  Co-localization with 6E10: co-localized with the immunoreactivity of 6E10 dense core amyloid plaques
[3]
  Co-localization with 6E10: co-localized with the immunoreactivity of 6E10 in CAA-laden plaques within the vessels
